Among all 110,000 compounds or so, about 230 (0.21%) showed an effect of 50% or more. Some of the results follow.
The compounds below were run against DPAP1 (Plasmodium falciparum, UniProt Q8IIJ9) (assay: primary screen, percent inhibition; read by cleavage of a fluorogenic dipeptide substrate; higher = more effect of the substance).
Design: species or system P. falciparum D10 trophozoite lysates; single well
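Further: 30 min substrate incubation versus DMSO and 10 µM JCP410 controls.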

Chain of DPAP1 (Q8IIJ9 whole entry, looked up): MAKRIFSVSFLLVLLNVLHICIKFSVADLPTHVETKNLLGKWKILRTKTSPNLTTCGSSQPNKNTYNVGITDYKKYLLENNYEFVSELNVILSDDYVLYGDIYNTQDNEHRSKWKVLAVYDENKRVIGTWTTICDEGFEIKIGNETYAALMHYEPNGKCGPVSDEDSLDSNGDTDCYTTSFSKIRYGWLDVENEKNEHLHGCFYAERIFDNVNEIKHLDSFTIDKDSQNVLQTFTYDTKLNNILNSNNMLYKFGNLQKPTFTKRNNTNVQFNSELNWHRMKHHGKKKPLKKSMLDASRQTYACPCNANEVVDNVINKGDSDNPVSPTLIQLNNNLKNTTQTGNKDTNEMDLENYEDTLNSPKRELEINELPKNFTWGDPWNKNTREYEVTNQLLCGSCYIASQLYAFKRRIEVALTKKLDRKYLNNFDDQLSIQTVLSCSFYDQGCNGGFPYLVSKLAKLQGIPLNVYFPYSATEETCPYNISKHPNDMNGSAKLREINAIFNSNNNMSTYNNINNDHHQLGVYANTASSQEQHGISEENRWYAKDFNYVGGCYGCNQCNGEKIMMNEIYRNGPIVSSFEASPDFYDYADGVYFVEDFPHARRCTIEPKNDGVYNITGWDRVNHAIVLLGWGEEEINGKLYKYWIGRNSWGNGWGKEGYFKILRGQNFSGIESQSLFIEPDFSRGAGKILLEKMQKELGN

| Compound | % Inhibition @ 10 uM [%] |
| --- | --- |
| CC(=O)c1c(C)n(C)c2ccc(O)cc12 | -7.98 |
| COc1ccc(S(=O)(=O)N(CC(=O)Nc2cccnc2)c2cccc(Cl)c2)cc1 | 2.17 |
| CC1(C)CC(=O)C2=C(C1)OC(N)=C(C#N)C2c1ccc(N2CCCC2)cc1 (stereo not drawn) | 4.65 |
| Cc1ccccc1-c1nc(SCc2cc(=O)n3nc(C(C)C)sc3n2)n[nH]1 | -7.24 |
| CCCCn1c(=O)[nH]c2c(oc3ccccc32)c1=O | 4.85 |
| Cc1cccc2cc(C=C3C(=O)NC(=O)NC3=O)c(O)nc12 | -5.28 |
| CCNS(=O)(=O)c1cc(C(=O)N2CCCCC2)ccc1OC | -1.98 |
| Cc1cccc(Oc2nc3ccccn3c(=O)c2/C=C(\C#N)S(=O)(=O)c2ccccc2)c1C | 2 |
| COCC(=O)NC(C)c1nc2ccccc2n1Cc1ccccc1C (stereo not drawn) | -6.55 |
| O=C1CCCC2=C1C1(O)C(=O)c3ccccc3C1(O)O2 (stereo not drawn) | 1.42 |
| CN(C)S(=O)(=O)c1cccnc1OCC(O)CNC(C)(C)C (stereo not drawn) | -7.56 |
| OC1CCN(Cc2cccc(Br)c2)CC1 | -1.86 |
| COc1cc(C(=O)Nc2cccnc2)cc(OC)c1OC | -1.52 |
| Cc1cc(Cl)ccc1OCC(=O)Nc1cccc(F)c1 | -2.17 |
| CCOC(=O)N1CCC(NCc2ccccc2C(F)(F)F)CC1 | 1.74 |
| CC1CN(CCc2ccccc2)CC(C)O1 (stereo not drawn) | -1.21 |
| COCC1=C(C(=O)OC)C(c2ccc(F)c(Oc3ccccc3)c2)C(C#N)=C(N)O1 (stereo not drawn) | -0.603 |
| CCN1CCC(N2CC=C(c3ccc(F)cc3)CC2)CC1 | -0.0648 |
| CCCCN(Cc1ccccc1)S(=O)(=O)c1cccc2nsnc12 | 0.457 |
| CCOc1cc(/C=C2/C(=N)N3C(SC)=NSC3=NC2=O)ccc1OS(C)(=O)=O | -5.27 |
| COc1ccc(C(=O)O/N=C2/C=C(C(C)C)C(=O)C=C2C)cc1Br | -2.14 |
| COc1ccc(OC)c(NC2=C(Cl)C(=O)N(c3ccccc3C)C2=O)c1 | 2.76 |
| C=C(C)Cn1c(O)nc2ccccc21 | 1.12 |
| COc1cc(C(=O)N2CCN(C(=O)c3cc(-c4ccc(C)cc4C)[nH]n3)CC2)cc(OC)c1OC | 1.25 |
| CCOC(=O)N1CCN(CC(O)COc2ccc(C(C)(C)C)cc2)CC1 (stereo not drawn) | -0.822 |
| CCCC(=O)Nc1ccccc1NC(=O)c1cc(Cl)ccc1OC | 0.235 |

| Compound | % Inhibition @ 10 uM [%] |
| --- | --- |
| O=C(O/N=C(/c1ccccc1)c1ccncc1)c1ccc(F)cc1 | -3.75 |
| O=C(O)c1cc(NS(=O)(=O)c2ccc(Cl)cc2)cc(C(=O)O)c1 | -4.59 |
| CN1CCC(Oc2ccc(Sc3ccccc3)cc2)CC1 | -0.872 |
| Cc1ccccc1NC(=O)CN1CCOCC1 | -0.415 |
| C=CCNc1nc(NCC=C)nc(OC)n1 | -2.51 |
| O=C(COc1ccccc1Cl)Nc1ccc(S(=O)(=O)N2CCCCCC2)cc1 | 1.89 |
| CN1CCC(NC2CCCCCC2)CC1 | -3.6 |
| COc1cc(Br)c(Cc2nc3ccccc3[nH]2)cc1OC | 6 |
| COc1ccc(OC)c(NC(=O)c2ccc(C)c(Br)c2)c1 | -8.64 |
| COc1cc(C2C3=C(O)CCCC3=Nc3ccc4nc(C)ccc4c32)cc(OC)c1OC (stereo not drawn) | 1.43 |
| CN(Cc1ccccc1)S(=O)(=O)c1ccc(F)cc1 | -2.6 |
| CCOC(=O)N1CCN(C(=O)CSc2nnc(Cc3cccn3C)n2-c2ccc(C)cc2)CC1 | -3.95 |
| O=C(Nc1cc(F)ccc1F)C12CC3CC(C1)CC(n1cncn1)(C3)C2 | -2.88 |
| Brc1ccc(CN2CCN(c3ccccc3)CC2)cc1 | -1.77 |
| O=C(c1ccccc1)c1ccc(C(=O)c2ccccc2)cc1 | -3.04 |
| O=C(CC(NCCN1CCOCC1)C(=O)O)Nc1ccc(Cl)c(Cl)c1 (stereo not drawn) | 1.94 |
| COc1ccccc1CNCCCSc1nnnn1C | -1.11 |
| Cc1nc(O)nc(O)c1S(=O)(=O)N1CCC(C(=O)NCc2ccccc2Cl)CC1 | 2.35 |
| CC(CCc1ccccc1)NC(=O)CCCc1nnc2n(C)c(=O)c3sccc3n12 (stereo not drawn) | -5.35 |
| O=C(NCc1ccccc1)c1c(O)nc2ccccc2c1O | -0.795 |
| CCOC(=O)c1c(S(=O)(=O)NCc2ccc(OC)cc2)c(C)n(C)c1C | 6.05 |
| O=C(c1cc2nc(-c3ccccc3)cc(C(F)(F)F)n2n1)N1CCN(Cc2ccccc2)CC1 | -0.467 |
| Cc1ccc(CNC(=O)c2cc(C)nc3ccccc23)cc1 | 4.36 |
| Cc1cccc(C)c1NC(=O)c1c(-c2ccccc2)noc1C | 0.408 |
| COc1ccc(Oc2c(C(F)(F)F)oc3cc(OC)ccc3c2=O)cc1 | 2.02 |
| COc1cccc(-c2nc3c(c(SCc4ccncc4)n2)Cc2c(CO)cnc(C)c2O3)c1 | 2.97 |

| Compound | % Inhibition @ 10 uM [%] |
| --- | --- |
| Oc1oc(-c2cccc3ccccc23)nc1/C=N/c1nccs1 | -2.74 |
| CC(NC(=O)c1ccc([N+](=O)[O-])cc1)c1ccccc1 (stereo not drawn) | -6.99 |
| CCOc1ccc(C2C(C#N)=C(N)Oc3[nH]nc(-c4ccc(OC)cc4)c32)cc1 (stereo not drawn) | 0.343 |
| CCCSc1nc(-c2ccccc2)cc(-c2ccc(OC)cc2)c1C#N | -7.35 |
| COC(=O)c1cccc(NC(=O)C(C)Oc2ccc(C(C)(C)C)cc2)c1 (stereo not drawn) | -1.36 |
| CCn1c(C)cc(/C=C2/NC(=O)N(c3cccc(Cl)c3)C2=O)c1C | 1.92 |
| O=C(O)c1cc(Cl)c(Cl)cc1C(=O)Nc1ccc(Cl)cc1 | -3.78 |
| COc1cccc(C2C(C(=O)N3CCCCC3)=C(C)Nc3nc4ccccc4n32)c1OC (stereo not drawn) | -3.13 |
| CC1=CC(=C2C(=O)NC(=O)NC2=O)C=C(C(F)(F)F)N1Cc1ccco1 | 20.4 |
| CCOc1ccc2nc(SCC(=O)Nc3nc(OC)cc(OC)n3)sc2c1 | -2.8 |
| CC(=O)N1N=C2C3CCN(CC3)C2C1c1cccs1 (stereo not drawn) | -0.0235 |
| CCS(=O)(=O)NCCc1cc2cc(C)c(C)cc2nc1O | -3.51 |
| Cc1c(CCC(=O)O)c(O)n2c(nc3ccccc32)c1C#N | -1.72 |
| Cc1ccc(NC(=O)N2CCN(C)CC2)cc1 | -5.68 |
| CCc1ccccc1S(=O)(=O)Cc1ccc(C(=O)NCc2ccc3c(c2)OCO3)o1 | -4.96 |
| CS(=O)(=O)N(CC(=O)Nc1ccc(Cl)c(Cl)c1)Cc1ccccc1 | 1.93 |
| Cn1c(=O)c2c(nc(N3CCN(CCO)CC3)n2CCCc2ccccc2)n(C)c1=O | -8.53 |
| COc1ccc(-c2cc(C(F)F)n3ncc(C(=O)N4CCC(Cc5ccccc5)CC4)c3n2)cc1 | -9.37 |
| COc1ccc(Br)cc1C1=N/C(=C\c2cc(OC)c(OC)c(OC)c2)C(=O)O1 | -6.82 |
| COc1ccc(-c2nc(N3CCC(C)CC3)nc(O)c2C#N)cc1 | 3.34 |
| Cc1cc(C)c(Cn2c(C)c(CNC3CCCCC3)c(C(=O)O)c2C)c(C)c1 | 4.53 |
| COc1ccccc1C(=O)N1CCN(c2ccc3nnc(-c4ccccc4)n3n2)CC1 | 0.291 |
| O=C(Cn1ncc2c1-c1ccccc1OC2)N1CCOCC1 | -1.66 |
| COc1ccccc1-c1ccc(C=C(C(C)=O)C(C)=O)o1 | -5.28 |
| COc1ccc(C(=O)Nc2sc3c(c2C#N)CCCCC3)cc1 | -1.06 |
| CCOc1ccc(NC=C2C(=O)CC(c3ccccc3)CC2=O)cc1 (stereo not drawn) | 3.99 |

| Compound | % Inhibition @ 10 uM [%] |
| --- | --- |
| Cc1ccc2c(c1)-c1onc(C(=O)NCCCOC(C)C)c1CO2 | 1.97 |
| COc1ccc(NC(=O)OCC2c3ccccc3-c3ccccc32)cc1 | -4.01 |
| COc1ccc(NCc2cccc(OC)c2)cc1 | 1.38 |
| COc1ccc(CNS(=O)(=O)c2cccc3nsnc23)cc1 | 1.2 |
| COc1ccc(C2=N/C(=C\c3ccccc3OC)C(=O)O2)cc1 | -2.54 |
| Cc1nnc(NC(=O)c2nc(S(C)(=O)=O)ncc2Cl)s1 | -4.64 |
| CCOC(=O)c1sc2nc(C)cc(C(F)(F)F)c2c1N | 0.605 |
| CCCCN(C)Cc1cc(Cl)cc(Cl)c1O | 2.1 |
| CC(C)Cc1nnc2sc(NC(=O)c3ccc(F)cc3)nn12 | 6.38 |
| C=CCn1c(SCC(=O)Nc2cc(C)ccc2OC)nc2sc(C)cc2c1=O | -3.16 |
| COc1ccc(/C=C/C2=NC(=C\c3cccc4ccccc34)/C(=O)O2)cc1 | 3.9 |
| c1ccc(CN2CCN(c3ncnc4sc5c(c34)CCC5)CC2)cc1 | 9.65 |
| COc1ccc(C(=O)C[N+]2=C(N)CCC2)cc1 | -5.85 |
| CC(C)C[C@H](NC(=O)c1cc(-c2ccccc2Cl)cs1)C(=O)NCC#N | -3.48 |
| CCc1c(O)nc(SC2CC(=O)N(c3ccccc3)C2=O)nc1O (stereo not drawn) | 5.42 |
| Cc1cc(C)nc(NS(=O)(=O)c2ccc(NC(=O)C(C)Oc3ccc(Cl)cc3Cl)cc2)n1 (stereo not drawn) | -2.74 |
| N#CC1=C(N)Oc2c(ccc3ccccc23)C1c1cccc(Br)c1 (stereo not drawn) | -0.986 |
| CCC(C(=O)NCC1CCCN1CC)n1nc(C)c2sc3ccccc3c2c1=O (stereo not drawn) | -4.09 |
| COc1ccc(NC(=O)c2cc(S(=O)(=O)N3CCCCC3)ccc2Br)cc1 | -1.36 |
| CCN1c2ccccc2NC2C1C(C(C)=O)C(=O)N2c1ccc(Cl)cc1 (stereo not drawn) | 0.177 |
| Cc1cccc(C(=O)OC(C)CN2C(C)CCCC2C)c1 (stereo not drawn) | -5.51 |
| CC1CC(=O)C2=C(C1)OC(N)=C(C#N)C2c1ccc(Cl)cc1Cl (stereo not drawn) | -3.79 |
| CCS(=O)(=O)c1ccsc1S(=O)(=O)CC | 3.06 |
| CC1=C(C(=O)Nc2ccccc2F)C(c2ccc3c(c2)OCO3)C2=C(O)CCCC2=N1 (stereo not drawn) | 6.97 |

Source: article PMC6919601, “Identification of Plasmodium dipeptidyl aminopeptidase allosteric inhibitors by high throughput screening” (PLoS ONE, 2019)
